According to PubChem BioAssay AID463173 (ICCB-Longwood Screening Facility, Harvard Medical School, 2010):
Hit rate of the full screen: of about 52,000 compounds, about 1,700 (3.3%) were called active. Cut-off read from the data, not from the text of the source: active = survival mostly below about 52% (no sharp cut-off); inactive = mostly above about 56%. The list shows a part of the results.

tested on: Wild type; experiment: growth inhibition of S. aureus wild type versus tarO mutant, primary screen, teichoic acid synthesis inhibitors, RN4220, OD600 (AID 463173); details: S. aureus RN4220 wild type/DeltatarO growth, OD600, 18 h, stronger effect = lower value, screened at 18.75 µg/mL (by protocol)

Compound	survival
COc1ccc(S(=O)(=O)c2cn(Cc3ccccc3)c3ccc(OC)cc3c2=O)cc1	inactive: 134%
Cc1cc(C)n(C(=O)CNc2ccccc2Cl)n1	inactive: 103%
COc1ccccc1NC(=O)c1cc(C2CC2)nc2c1c(C)nn2-c1ccc(C)cc1	inactive: 88%
CC(C)CCN(Cc1ccco1)C(=O)Cn1ncc2c([nH]c3ccccc32)c1=O	inactive: 82%
O=c1c(N2CCc3ccccc3C2)csc2ccc(Br)cc12	inactive: 80%
CCOC(=O)c1cc(-c2ccccc2)n(CCCC(=O)Nc2cc(C)ccc2OC)c1C	inactive: 84%
Cc1cccc(C(=O)Nc2ccc(N3CCN(c4ccc(F)cc4)CC3)c(C(=O)O)c2)c1	inactive: 63%
COc1ccccc1Cc1nc2ccccc2nc1SCC(=O)N1CCC(C)CC1	inactive: 70%
Nc1cc(S(=O)(=O)C(F)(F)F)cc(S(=O)(=O)C(F)(F)F)c1	inactive: 110%
O=C(NC1CCCCCC1)N1CCOCC1	inactive: 106%
Cc1c(C(=O)N2CCC(C)CC2)c(S(=O)(=O)N2CCN(c3cccc(Cl)c3)CC2)c(C)n1C	inactive: 73%
COc1ccc(OC)c(NC(=O)CCc2nc(-c3ccc(C)cc3)no2)c1	inactive: 84%
Cc1ccn2c(Nc3ccc4c(c3)OCCO4)c(-c3ccc(C)s3)nc2c1	inactive: 126%
Cc1ccc2nc(SCC(=O)Nc3ccc(C#N)cc3)[nH]c2c1	inactive: 83%
Cc1c(Nc2ncnc3sc4c(c23)CCCC4)c(=O)n(-c2ccccc2)n1C	inactive: 102%
CCOc1ccc(C(=O)NCc2ccc3c(c2)CCN3C(=O)c2ccc(C)cc2)cc1OCC	inactive: 76%
COc1ccc(Nc2cc(C(=O)NCc3ccccc3)c3ccccc3n2)cc1OC	inactive: 83%
CC1CCC/C(=C(/C#N)c2nc(-c3ccccc3O)cs2)C1 (stereo not given)	inactive: 85%
O=c1c(S(=O)(=O)c2ccc(Cl)cc2)cn(Cc2ccc(F)cc2)c2ccc(F)cc12	inactive: 130%
COc1ccc(S(=O)(=O)c2cn(Cc3ccccc3)c3cc(F)c(F)cc3c2=O)cc1	inactive: 82%
CN1C(=O)c2[nH]nc(-c3ccc(F)cc3)c2C1c1ccccn1 (stereo not given)	inactive: 94%
CCCCn1c(SCC(=O)Nc2ccc(F)cc2)nc2c(sc3ccccc32)c1=O	inactive: 78%
Fc1ccc(Nc2nc(Nc3ccc(F)cc3)nc(N3CCOCC3)n2)cc1	inactive: 101%
CC(C)c1ccc(NC(=O)Cn2nnc(C(=O)NCc3cccs3)c2N)cc1	inactive: 133%
COc1ccc(NC(=O)C(=O)NCC2(c3ccccc3)CCCC2)c(OC)c1	inactive: 99%
